The other results are listed elsewhere or left out. The energies were worked out here from pooled read counts, against the library average; single values are noisy.

The test concerns the target T1, Pho4 (S. cerevisiae) (UniProt P07270).
T1 sequence: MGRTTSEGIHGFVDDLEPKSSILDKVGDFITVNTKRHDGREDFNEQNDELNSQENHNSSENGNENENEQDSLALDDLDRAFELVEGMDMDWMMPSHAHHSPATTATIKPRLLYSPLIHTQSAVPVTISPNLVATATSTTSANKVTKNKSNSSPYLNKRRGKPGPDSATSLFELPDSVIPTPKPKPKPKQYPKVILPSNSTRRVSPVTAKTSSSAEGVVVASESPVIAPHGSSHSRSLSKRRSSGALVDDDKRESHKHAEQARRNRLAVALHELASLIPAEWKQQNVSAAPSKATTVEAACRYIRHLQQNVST
The test is described as follows: relative binding free energy (BET-seq); higher = weaker binding. Particulars: reference: library average.
For the sequence TGGAGCACGTGGTGTT, the “relative binding free energy” value was -0.09 kcal/mol.

With CCGGGCACGTGGTGAT, the “relative binding free energy” value is -0.1 kcal/mol.

Turning to TTTAACACGTGGGCTA, the “relative binding free energy” value was -0.1 kcal/mol.

For the sequence AACGGCACGTGGAGTG, the “relative binding free energy” value was -0.1 kcal/mol.

Turning to ATCGGCACGTGTTTAG, the “relative binding free energy” value was -0.03 kcal/mol.

As to TCTTTCACGTGTTGTG, the “relative binding free energy” value was found to be 0.18 kcal/mol.

On to GGGTTCACGTGAAATT, for which the “relative binding free energy” value amounted to 0.47 kcal/mol.

As for ATTAGCACGTGTACGG, the “relative binding free energy” value stood at 0.07 kcal/mol.

Regarding AGGTTCACGTGAGGCG, the “relative binding free energy” value is 0.36 kcal/mol.

On to GTAGTCACGTGTGAGA, for which the “relative binding free energy” value is 0.15 kcal/mol.

AGGATCACGTGTTAGC: the “relative binding free energy” value turned out to be 0.21 kcal/mol.

Regarding GTATCCACGTGTTTTG, the “relative binding free energy” value turned out to be 0.01 kcal/mol.

Regarding AGGGTCACGTGTTCAT, the “relative binding free energy” value amounted to 0.09 kcal/mol.

Regarding CTTGTCACGTGATTGT, the “relative binding free energy” value was found to be 0.22 kcal/mol.

As for GGTTTCACGTGAGGCA, the “relative binding free energy” value stood at 0.39 kcal/mol.

In the case of GTGTACACGTGTTGTG, the “relative binding free energy” value is 0.1 kcal/mol.

In the case of TTTTTCACGTGGTGAT, the “relative binding free energy” value came out at 0.31 kcal/mol.

As to AGTGGCACGTGAACGG, the “relative binding free energy” value stood at 0.16 kcal/mol.

As for AGGATCACGTGTGCTG, the “relative binding free energy” value turned out to be 0.14 kcal/mol.

As to CACGTCACGTGGGGGT, the “relative binding free energy” value was -0.1 kcal/mol.

In the case of TTATCCACGTGAATGT, the “relative binding free energy” value was found to be 0.44 kcal/mol.

In the case of TTCAACACGTGGGTGA, the “relative binding free energy” value is -0.01 kcal/mol.

For the sequence GGGGGCACGTGAGTGC, the “relative binding free energy” value stood at 0.03 kcal/mol.

Take AGTGTCACGTGCGAAG: the “relative binding free energy” value turned out to be 0 kcal/mol.

Regarding TGAGTCACGTGTGTAG, the “relative binding free energy” value was found to be 0.09 kcal/mol.

As to GATGTCACGTGACGGT, the “relative binding free energy” value worked out at 0.34 kcal/mol.

For TAGTACACGTGGGACG, the “relative binding free energy” value is -0.05 kcal/mol.

Take CTGATCACGTGTTATG: the “relative binding free energy” value was determined as 0.11 kcal/mol.

With TGCGACACGTGATGTT, the “relative binding free energy” value worked out at 0.15 kcal/mol.

Take ATGTTCACGTGGGGTT: the “relative binding free energy” value was determined as 0.15 kcal/mol.

For GTATGCACGTGGGTGT, the “relative binding free energy” value is -0.12 kcal/mol.

In the case of GGCGGCACGTGCGGGT, the “relative binding free energy” value is -0.11 kcal/mol.

On to CGTTTCACGTGGTTGC, for which the “relative binding free energy” value came out at 0.12 kcal/mol.

For AGTTGCACGTGCGGGG, the “relative binding free energy” value is -0.2 kcal/mol.

With AGTTGCACGTGAGTCG, the “relative binding free energy” value was determined as 0.1 kcal/mol.

For the sequence GTTATCACGTGAAATG, the “relative binding free energy” value worked out at 0.34 kcal/mol.

Take GGTGGCACGTGGCATT: the “relative binding free energy” value was -0.16 kcal/mol.

For the sequence ATAAACACGTGTTAGT, the “relative binding free energy” value came to 0 kcal/mol.

As to CAAGGCACGTGAGTGT, the “relative binding free energy” value is 0 kcal/mol.

With CAGTTCACGTGAATGT, the “relative binding free energy” value was found to be 0.31 kcal/mol.

Take TAGCTCACGTGTCGGT: the “relative binding free energy” value was determined as 0.35 kcal/mol.

Consider GAACTCACGTGGTGTG, for which the “relative binding free energy” value amounted to 0.18 kcal/mol.

For AGCGTCACGTGAGAGG, the “relative binding free energy” value worked out at 0.14 kcal/mol.

As to TTGATCACGTGAGTTG, the “relative binding free energy” value worked out at 0.33 kcal/mol.

With GGACCCACGTGGTGGG, the “relative binding free energy” value was -0.17 kcal/mol.

Regarding ATTGTCACGTGGTTGA, the “relative binding free energy” value stood at 0.01 kcal/mol.

Regarding TTAGGCACGTGATGAG, the “relative binding free energy” value came to 0.04 kcal/mol.

Regarding GCTGTCACGTGATGGA, the “relative binding free energy” value came to 0.17 kcal/mol.

Consider GTTGTCACGTGCATGC, for which the “relative binding free energy” value stood at 0.1 kcal/mol.

Take GTTAACACGTGATGAG: the “relative binding free energy” value came out at 0.26 kcal/mol.

For GGGATCACGTGTTTGG, the “relative binding free energy” value came to 0.3 kcal/mol.

With ATTTTCACGTGGGTAT, the “relative binding free energy” value turned out to be 0.13 kcal/mol.

Take TCAGGCACGTGAGGCT: the “relative binding free energy” value was determined as 0.24 kcal/mol.

With TTTGACACGTGAGAAT, the “relative binding free energy” value was determined as 0.19 kcal/mol.

Consider TAATGCACGTGTCAGT, for which the “relative binding free energy” value is -0.07 kcal/mol.

Consider TGTATCACGTGGGGGC, for which the “relative binding free energy” value was determined as 0.07 kcal/mol.

As to TGTATCACGTGCTCGT, the “relative binding free energy” value is -0.03 kcal/mol.

As for ACTGGCACGTGGTCGT, the “relative binding free energy” value was -0.13 kcal/mol.

Regarding AAGGCCACGTGTGTTT, the “relative binding free energy” value is -0.08 kcal/mol.

For the sequence GTTTCCACGTGCAGGT, the “relative binding free energy” value came out at 0.23 kcal/mol.

Take TCGGTCACGTGGCGGA: the “relative binding free energy” value turned out to be 0.13 kcal/mol.

Take TAAAACACGTGTTGTG: the “relative binding free energy” value is -0.01 kcal/mol.

In the case of AGTGGCACGTGGTTAC, the “relative binding free energy” value is -0.06 kcal/mol.

Turning to ATTAGCACGTGGGGGT, the “relative binding free energy” value was -0.26 kcal/mol.

As for TTTGTCACGTGATGTC, the “relative binding free energy” value stood at 0.19 kcal/mol.

With GACTGCACGTGGGTTG, the “relative binding free energy” value turned out to be 0.02 kcal/mol.

As for CATTACACGTGGGGTT, the “relative binding free energy” value was -0.04 kcal/mol.

CGGATCACGTGTAAGG: the “relative binding free energy” value worked out at 0.44 kcal/mol.

For AGGTTCACGTGTGCAG, the “relative binding free energy” value stood at 0.25 kcal/mol.

Regarding CATGGCACGTGGTTCG, the “relative binding free energy” value was -0.13 kcal/mol.

For ATAAGCACGTGAAGGG, the “relative binding free energy” value stood at 0.11 kcal/mol.

With ATAATCACGTGTGTGC, the “relative binding free energy” value turned out to be 0.18 kcal/mol.

For AGGATCACGTGAAAGT, the “relative binding free energy” value was found to be 0.33 kcal/mol.

Turning to AGATTCACGTGTGTGA, the “relative binding free energy” value came to 0.33 kcal/mol.

In the case of GATAGCACGTGCTTGG, the “relative binding free energy” value was -0.07 kcal/mol.

With GGTAACACGTGTTAAA, the “relative binding free energy” value was 0.22 kcal/mol.

Turning to TTGTACACGTGGAATT, the “relative binding free energy” value was found to be 0.21 kcal/mol.

Consider TTGGGCACGTGGCTTT, for which the “relative binding free energy” value is -0.19 kcal/mol.

On to GGTTTCACGTGGTAAC, for which the “relative binding free energy” value was determined as 0.41 kcal/mol.

Take AAAGACACGTGTTGGT: the “relative binding free energy” value turned out to be 0.06 kcal/mol.

Take CAATTCACGTGGGGTT: the “relative binding free energy” value is 0.22 kcal/mol.

For GTGGGCACGTGCGGTT, the “relative binding free energy” value was -0.11 kcal/mol.

On to ATTGTCACGTGGTCTC, for which the “relative binding free energy” value was 0.1 kcal/mol.

As to ATATTCACGTGTTGCG, the “relative binding free energy” value is 0.26 kcal/mol.

For the sequence GCTGTCACGTGAGGGT, the “relative binding free energy” value is 0.19 kcal/mol.

For TAGCGCACGTGTTGCT, the “relative binding free energy” value turned out to be 0.05 kcal/mol.

Turning to ACAGACACGTGTGTGG, the “relative binding free energy” value is -0.01 kcal/mol.

Consider CTAGTCACGTGCGTGG, for which the “relative binding free energy” value was -0.07 kcal/mol.

As to TATCGCACGTGTTTTA, the “relative binding free energy” value is -0.02 kcal/mol.

With TTGGTCACGTGTCCAG, the “relative binding free energy” value is 0.17 kcal/mol.

Consider GGCGGCACGTGGGCGG, for which the “relative binding free energy” value was -0.14 kcal/mol.

As for GTGGTCACGTGGTTGA, the “relative binding free energy” value amounted to 0.15 kcal/mol.

Turning to GATATCACGTGGTTTG, the “relative binding free energy” value was found to be 0.06 kcal/mol.

On to GGTCACACGTGCGTGT, for which the “relative binding free energy” value turned out to be 0.07 kcal/mol.

On to ATTGCCACGTGTTTAT, for which the “relative binding free energy” value was -0.15 kcal/mol.

For TGACTCACGTGTTGTG, the “relative binding free energy” value is 0.09 kcal/mol.

For CATTTCACGTGTGAGG, the “relative binding free energy” value turned out to be 0.13 kcal/mol.

Take GTGATCACGTGCGGTG: the “relative binding free energy” value was -0.02 kcal/mol.

Turning to GTGACCACGTGTTTGT, the “relative binding free energy” value was found to be 0.01 kcal/mol.

Regarding ATGGACACGTGGTGGA, the “relative binding free energy” value was determined as 0.03 kcal/mol.

For GCGTACACGTGGTTGG, the “relative binding free energy” value is 0.01 kcal/mol.

Take ATATCCACGTGGTATT: the “relative binding free energy” value is -0.06 kcal/mol.

Regarding GGGTGCACGTGTTATA, the “relative binding free energy” value was found to be 0.03 kcal/mol.

As to TAGGCCACGTGTGGAG, the “relative binding free energy” value was -0.06 kcal/mol.

Regarding TGTACCACGTGTTGTT, the “relative binding free energy” value was -0.11 kcal/mol.

Regarding CAGATCACGTGGGCGG, the “relative binding free energy” value was -0.02 kcal/mol.

On to TTGGACACGTGTTGCG, for which the “relative binding free energy” value came to 0.01 kcal/mol.

As for TCGTTCACGTGAATGT, the “relative binding free energy” value worked out at 0.41 kcal/mol.

For TGCAACACGTGTGGGT, the “relative binding free energy” value was found to be 0.01 kcal/mol.

With AGTTGCACGTGTTAGA, the “relative binding free energy” value is -0.04 kcal/mol.

Take TTCTTCACGTGGTGTT: the “relative binding free energy” value worked out at 0.3 kcal/mol.

As to TGAGACACGTGTTTAT, the “relative binding free energy” value was -0.03 kcal/mol.

Regarding TGTTTCACGTGGTTTC, the “relative binding free energy” value came out at 0.23 kcal/mol.

For the sequence TGGGCCACGTGAAGGT, the “relative binding free energy” value is -0.03 kcal/mol.

Consider TGAGACACGTGATTTT, for which the “relative binding free energy” value turned out to be 0.24 kcal/mol.

Values taken from the BET-seq Pho4 binding data (Le et al. 2018).
